Test results: patent publication US20240124575A1 (SIMCERE ZAIMING PHARMACEUTICAL, published 2024)

T1: murine CD33-His protein (murine, UniProt Q63994 18-240, limits assumed)
T1 construct: also called murine CD33 protein
T1 sequence (looked up): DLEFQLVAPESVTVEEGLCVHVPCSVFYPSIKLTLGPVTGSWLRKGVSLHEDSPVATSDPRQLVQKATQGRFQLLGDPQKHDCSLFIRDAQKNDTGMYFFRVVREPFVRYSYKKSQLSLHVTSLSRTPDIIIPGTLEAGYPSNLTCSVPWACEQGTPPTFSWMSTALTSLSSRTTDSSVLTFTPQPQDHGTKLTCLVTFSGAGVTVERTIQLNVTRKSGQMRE


How the values were obtained:
human CD33-C2-his = molecular target: T2, human CD33-C2-his (human, UniProt P20138 136-260); assay: ELISA on coated human CD33-C2-his
T2 construct: expressed in HEK293E; also called hCD33-C2-his; human CD33 protein C2-domain; not shown: His tag

murine CD33-His protein [1] = molecular target: T1, murine CD33-His protein; assay: ELISA on coated murine CD33-his
human CD33-his protein = molecular target: T3, human CD33-his protein (human, UniProt P20138 18-259); assay: SPR (Biacore), antibody captured on Protein A chip, human CD33-his analyte
T3 construct: range 18-259; bought protein; also called hCD33-his; recombinant human CD33-his; not shown: His tag

monkey CD33-his protein = molecular target: T4, monkey CD33-his protein (monkey); assay: SPR (Biacore), antibody captured on Protein A chip, monkey CD33 analyte
T4 construct: bought protein; also called monkey CD33 protein (Sino Biological, Cat. No. 50712-M08H)

human CD33-His = molecular target: T5, human CD33-His (human, UniProt P20138 18-259); assay: SPR (Biacore), antibody captured on Protein A chip, human CD33-his as analyte
T5 construct: range 18-259; Bought protein; also called human CD33-his protein; hCD33-his; not shown: His tag

murine CD33-His protein [2] = molecular target: T1, murine CD33-His protein; assay: ELISA, antigen coated

| Binder | binding result (murine CD33-His protein [1]) | Kd (human CD33-his protein) [nM] | koff (human CD33-his protein) [s⁻¹] | kon (human CD33-his protein) [M⁻¹ s⁻¹] | Kd (monkey CD33-his protein) [nM] | koff (monkey CD33-his protein) [s⁻¹] | kon (monkey CD33-his protein) [M⁻¹ s⁻¹] | also measured |
| --- | --- | --- | --- | --- | --- | --- | --- | --- |
| S006-NB146-60-H6 (Fc fusion, also called humanized VHH-Fc) EVQLVESGGGLVQPGGSLRLSCAASRSTSSLSLMSWHRQAPGKQRELVASITSGGKANYVDSVKGRFTISRNDAKNSLYLQMNSLRAEDTAVYYCHAYDRAGTASGFGAAWGQGTMVTVSS[letters of human IgG1 Fc with changes left out] | no binding (tested: 100 nM) |  |  |  |  |  |  | binding result (human CD33-C2-his): no binding (tested: 100 nM) |
| S006-NB146-60-H4 (Fc fusion, also called humanized VHH-Fc) EVQLVESGGGLVQPGGSLRLSCAASRSTSSLSLMSWHRQAPGKQRELVASITSGGKANYVDSVKGRFTMSRDNAKNSVYLQMNSLRAEDTAVYYCHAYDRAGTASGFGAAWGQGTMVTVSS[letters of human IgG1 Fc with changes left out] | no binding (tested: 100 nM) |  |  |  |  |  |  | binding result (human CD33-C2-his): no binding (tested: 100 nM) |
| S006-NB146-60-H7 (Fc fusion, also called humanized VHH-Fc) EVQLVESGGGLVQPGGSLRLSCAASRSTSSLSLMSWHRQAPGKQRELVASITSGGKANYVDSVKGRFTISRDNAKNSLYLQMNSLKPEDTAVYYCHAYDRAGTASGFGAAWGQGTMVTVSS[letters of human IgG1 Fc with changes left out] | no binding (tested: 100 nM) |  |  |  |  |  |  |  |
| S006-NB147-225-H5 (Fc fusion, also called humanized VHH-Fc) EVQVVESGGGLVQPGGSLRLSCAASGFTFSNYAMSWVRQAPGKGLEWVAEINSGGDNTYYAYFVKGRFTISRDNAKNSLYLQMNSLKPEDTATYYCAREEENAGTILQGQGTQVTVSS[letters of human IgG1 Fc with changes left out] | no binding (tested: 100 nM) |  |  |  |  |  |  | EC50 (read off the curve) (human CD33-C2-his): ~0.06 nM |
| S006-NB146-39-aH8 (Fc fusion) EVQLVESGGGLVQPGGSLRLSCAASGIILDYYPIGWFRQAPGKEREGVAFITNSDDSTIYTNYADSVKGRFTISRDKNSLYLQMNSLRAEDTAVYYCAARSTYIVGRNENALNSADYDYWGQGTMVTVSS[letters of human IgG1 Fc with changes left out] |  | 4.42 | 0.0009 | 204000 | 47.8 | 0.0177 | 371000 |  |
| S006-NB146-39-aH12 (Fc fusion) EVQLVESGGGLVQPGGSLRLSCAASGIILDYYPIGWFRQAPGKEREGVAFITNSDDSTIYTNYADSVKGRFTISREKNTLYLQMNSLRAEDTAVYYCAARSTYIVGRNENALNSADYDYWGQGTMVTVSS[letters of human IgG1 Fc with changes left out] |  | 7.21 | 0.0015 | 208000 | 70.2 | 0.0265 | 377000 |  |
| S006-NB146-39-aH13 (Fc fusion) EVQLVESGGGLVQPGGSLRLSCAASGIILDYYPIGWFRQAPGKEREGVAFITNSDSSTIYTNYADSVKGRFTISREKNTLYLQMNSLRAEDTAVYYCAARSTYIVGRNENALNSADYDYWGQGTMVTVSS[letters of human IgG1 Fc with changes left out] |  | 8.43 | 0.00195 | 231000 | 61.4 | 0.0235 | 383000 |  |
| S006-NB146-173-H2 (Fc fusion, also called humanized VHH-Fc) EVQLVESGGGLVQPGGSLRLSCAASGFTFSLHSMGWYRQAPGKQRELVAGISRDGDSNYLSSLAGRFTISRDNAKNSLYLQMNSLRAEDTAVYYCNARTSPWSAALWGQGTMVTVSS[letters of human IgG1 Fc with changes left out] | no binding (tested: 100 nM) |  |  |  |  |  |  | binding result (human CD33-C2-his): binds |
| S006-NB146-173-H6 (Fc fusion) EVQLVESGGGLVQPGGSLRLSCAASGSTLSLHSMGWYRQAPGKQRELVAGISRDGDSNYLSSLAGRFTISRDGTKNSVYLQMNSLRAEDTAVYYCNARTSPWSAALWGQGTMVTVSS[letters of human IgG1 Fc with changes left out] |  | 7.6 | 0.00163 | 214000 | 16.1 | 0.0052 | 323000 |  |
| S006-NB146-173-H5 (Fc fusion) EVQLVESGGGLVQPGGSLRLSCAASGSTLSLHSMGWYRQAPGKQRELVAGISRDGDSNYLSSLAGRFTISRDGTKNSLYLQMNSLRAEDTAVYYCNARTSPWSAALWGQGTMVTVSS[letters of human IgG1 Fc with changes left out] |  | 61.2 | 0.00611 | 99900 | 95.1 | 0.0144 | 152000 |  |
| SGN-33 scFv-hIgG1Fc (Fc fusion, Control antibody in scFv-hFc format; variable regions from U.S. Pat. No. 9,453,046) QVQLVQSGAEVKKPGASVKVSCKASGYTFTNYDINWVRQAPGQGLEWIGWIYPGDGSTKYNEKFKAKATLTADTSTSTAYMELRSLRSDDTAVYYCASGYEDAMDYWGQGTTVTVSSGGGGSGGGGSGGGGSDIQMTQSPSSLSASVGDRVTINCKASQDINSYLSWFQQKPGKAPKTLIYRANRLVDGVPSRFSGSGSGQDYTLTISSLQPEDFATYYCLQYDEFPLTFGGGTKVEIK[letters of human IgG1 Fc with changes left out] |  |  |  |  |  |  |  | Kd (human CD33-His): 7.93 nM; koff (human CD33-His): 0.00557 s⁻¹; kon (human CD33-His): 702000 M⁻¹ s⁻¹ |
| S006-NB146-132 (Fc fusion, also called VHH-Fc) QVQLVESGGGLVQAGGSLRLSCAASGGTFVINAAWYHQAPGKQRELVANISYGGSTNYADRVAGRFAISRDNAKNTVYLQMNSLKPEDTGVYYCRLDPGLALNNRPLYYWGQGTQVTVSS[letters of human IgG1 Fc with changes left out] |  |  |  |  |  |  |  | OD450 at 0.0001 nM (murine CD33-His protein [2]): 0.06 OD450; OD450 at 0.001 nM (murine CD33-His protein [2]): 0.06 OD450; OD450 at 0.01 nM (murine CD33-His protein [2]): 0.06 OD450; OD450 at 0.1 nM (murine CD33-His protein [2]): 0.14 OD450; OD450 at 1 nM (murine CD33-His protein [2]): 0.17 OD450; OD450 at 10 nM (murine CD33-His protein [2]): 0.49 OD450; OD450 at 100 nM (murine CD33-His protein [2]): 0.84 OD450 |

Continued, in another order:

| binding result (murine CD33-His protein [1]) | Kd (human CD33-his protein) [nM] | koff (human CD33-his protein) [s⁻¹] | kon (human CD33-his protein) [M⁻¹ s⁻¹] | Kd (monkey CD33-his protein) [nM] | koff (monkey CD33-his protein) [s⁻¹] | kon (monkey CD33-his protein) [M⁻¹ s⁻¹] | Binder | also measured |
| --- | --- | --- | --- | --- | --- | --- | --- | --- |
| no binding (tested: 100 nM) |  |  |  |  |  |  | S006-NB146-60-H3 (Fc fusion, also called humanized VHH-Fc) EVQLVESGGGLVQPGGSLRLSCAASRSTSSLSLMSWHRQAPGKQRELVASITSGGKANYVDSVKGRFTISRDNAKNSLYLQMNSLRAEDTAVYYCHAYDRAGTASGFGAAWGQGTMVTVSS[letters of human IgG1 Fc with changes left out] | binding result (human CD33-C2-his): no binding (tested: 100 nM) |
| no binding (tested: 100 nM) |  |  |  |  |  |  | S006-NB146-60-H5 (Fc fusion, also called humanized VHH-Fc) EVQLVESGGGLVQPGGSLRLSCAASRSTSSLSLMSWHRQAPGKQRELVASITSGGKANYVDSVKGRFTISRDDAKNSLYLQMNSLRAEDTAVYYCHAYDRAGTASGFGAAWGQGTMVTVSS[letters of human IgG1 Fc with changes left out] | binding result (human CD33-C2-his): no binding (tested: 100 nM) |
|  | 5.25 | 0.00134 | 255000 | 42.6 | 0.0185 | 434000 | S006-NB146-39-aH9 (Fc fusion) EVQLVESGGGLVQPGGSLRLSCAASGIILDYYPIGWFRQAPGKEREGVAFITNSDSSTIYTNYADSVKGRFTISRDKNSLYLQMNSLRAEDTAVYYCAARSTYIVGRNENALNSADYDYWGQGTMVTVSS[letters of human IgG1 Fc with changes left out] |  |
|  | 0.538 | 0.000151 | 280000 | 2.72 | 0.00145 | 534000 | S006-NB146-39-aH11 (Fc fusion) EVQLVESGGGLVQPGGSLRLSCTAPGIILDYYPIGWFRQAPGKEREGVAFITNSDSSTIYTNYADSVKGRFTISRDKNSLYLQMNSLRAEDTAVYYCAARSTYIVGRNENALNSADYDYWGQGTMVTVSS[letters of human IgG1 Fc with changes left out] |  |
|  | 5.77 | 0.00091 | 158000 | 55.7 | 0.0171 | 308000 | S006-NB146-39-aH15 (Fc fusion) EVQLVESGGGLVQPGGSLRLSCAASGIILDYYPIGWFRQAPGKGREGVAFITNSDDSTIYTNYADSVKGRFTISRDKNSLYLQMNSLRAEDTAVYYCAARSTYIVGRNENALNSADYDYWGQGTMVTVSS[letters of human IgG1 Fc with changes left out] |  |
|  | 0.395 | 7.85e-05 | 199000 | 2.27 | 0.000829 | 365000 | S006-NB146-39-aH10 (Fc fusion) EVQLVESGGGLVQPGGSLRLSCTAPGIILDYYPIGWFRQAPGKEREGVAFITNSDDSTIYTNYADSVKGRFTISRDKNSLYLQMNSLRAEDTAVYYCAARSTYIVGRNENALNSADYDYWGQGTMVTVSS[letters of human IgG1 Fc with changes left out] |  |
